The text below walks through data of publication PMC3469516 (Molecular Biology of the Cell, 2012).

This assay deals with endogenous protein kinase Cα (PKCα) (mouse (endogenous in MEFs), UniProt P20444 1-672). Nature of the assay: co-IP.

B1: endogenous RhoA (natural protein)
chain: not shown
With B1, the “fold decrease of coprecipitated RhoA in DGKζ-null against wild-type cells” value is around 2.5 fold.
